Measured values from PubChem BioAssay AID624417 (National Center for Advancing Translational Sciences (NCATS), 2012).
Among all 410,000 compounds or so, about 6,400 (1.6%) were called active. The inconclusive results got no clear call from the source; some entries with a clear call stand among them for comparison. Calls come from the whole dose curve; as a rule, active = well fitted inhibition curve with a large enough effect; inconclusive = small, poorly fitted or top-dose-only effect; inactive = no such curve, though single readings can be large or run the other way. No potency is given beside an inconclusive call; the fits are too rough.

Each compound was assayed against Glucagon-like peptide 1 receptor (Homo sapiens) (UniProt P43220) (assay: qHTS of GLP-1 Receptor Inverse Agonists (Inhibition Mode)). Conditions: HEK293 GLP-1R CRE-luciferase, luminescence, 24 h, GLP-1R form is constitutively active; series mostly up to 38.3 µM.
Sequence of UniProt P43220 (P43220 whole entry, looked up): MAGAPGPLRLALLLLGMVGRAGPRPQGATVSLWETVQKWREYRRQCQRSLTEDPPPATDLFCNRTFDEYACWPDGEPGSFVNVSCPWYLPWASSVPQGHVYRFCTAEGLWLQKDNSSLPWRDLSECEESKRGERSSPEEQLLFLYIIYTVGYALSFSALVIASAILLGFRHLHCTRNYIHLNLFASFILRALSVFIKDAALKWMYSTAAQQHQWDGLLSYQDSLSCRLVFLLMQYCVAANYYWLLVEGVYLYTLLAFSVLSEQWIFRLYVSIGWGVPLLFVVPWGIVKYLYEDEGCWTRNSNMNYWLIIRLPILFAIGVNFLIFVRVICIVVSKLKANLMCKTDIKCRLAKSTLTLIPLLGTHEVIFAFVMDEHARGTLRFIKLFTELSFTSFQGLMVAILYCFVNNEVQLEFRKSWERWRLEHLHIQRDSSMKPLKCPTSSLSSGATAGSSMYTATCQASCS
Summary of the method: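 Constitutively active GLP-1R drives a cAMP-responsive luciferase in stably transfected HEK293 cells; test compounds are added after overnight (12 h) attachment and left 24 hr, and signal loss in luminescence marks inhibition.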
Note: nearly all actives have a fitted effect of over 55% in size.
Potency is the fitted concentration of half-maximal effect; tags give direction and shape of the fitted curve.

Compound	Potency
Cc1ccsc1/C=C/c1ccc2ccccc2n1	inconclusive [inhibitor, single point]
CCN(CC)c1ccc2c(c1)OC(N)=C(C#N)C2c1cccnc1 (stereo not drawn)	inactive
CC(C)(C)c1ccc(C(=O)NC(=S)Nc2nc3c(s2)CCCC3)cc1	inconclusive [inhibitor, full curve, poor fit]
COc1cc(/C=C2/C(=O)NN(c3ccc(F)cc3)C2=O)cc(Cl)c1O	inconclusive [inhibitor, full curve, poor fit]
Cn1c(NCc2ccccc2F)nc2ccccc21	inactive
C=Cc1ccc2c(c1)N(C)C(=C)S2	inconclusive [inhibitor, full curve, poor fit]
Cc1ccccc1NS(=O)(=O)c1cc(C(=O)Nc2cccc([N+](=O)[O-])c2)ccc1C	inconclusive [inhibitor, partial curve, poor fit]
COc1cc(C2c3[nH]c4ccccc4c3CCN2Cc2cn(C)nc2C)ccc1F (stereo not drawn)	inconclusive [inhibitor, single point]
CCOc1ccc(-n2c(-c3ccc(OC)cc3)cc3c2CC(C)(C)CC3=O)cc1	inconclusive [inhibitor, partial curve, poor fit]
COc1cccc(C(Nc2ccccc2)c2ccc3ccc(C)nc3c2O)c1 (stereo not drawn)	inconclusive [inhibitor, partial curve, poor fit]
Cc1cc(/C=C(\C#N)C(=O)OCC(=O)NC(=O)NC(C)(C)C)c(C)n1CCC(C)C	inconclusive [inhibitor, partial curve, poor fit]
Cc1ccc(N(CC(=O)NCc2cccs2)S(=O)(=O)c2cccs2)cc1	inconclusive [inhibitor, single point]
Cn1c(Cl)c(C(=O)Nc2ccc(Cl)cc2)c2ccccc21	inactive
CN(C)c1nc(N/N=C/c2ccccc2O)nc(Nc2ccc(F)cc2)n1	inconclusive [inhibitor, single point]
COc1ccc(CNC(=O)C(C)n2nc(C)c3c(C)n(-c4ccc(C)cc4)nc3c2=O)cc1 (stereo not drawn)	inconclusive [inhibitor, partial curve]
Cc1cc(C)cc(OCCOCCn2c(-c3ccc(Cl)cc3)nc3ccccc3c2=O)c1	inactive
COc1ccc(-c2cc(-n3c(C(F)(F)F)nc4ccccc43)n(CCC#N)n2)cc1	active: 10 µM
CC(NC(=O)Cc1ccc([N+](=O)[O-])cc1)c1ccc2c(c1)OCO2 (stereo not drawn)	inconclusive [inhibitor, partial curve, poor fit]
